# In PubChem BioAssay AID1476 (National Center for Advancing Translational Sciences (NCATS), 2009):
# About 4,500 (2.2%) of roughly 200,000 compounds were called active. This list was built around the results that the source calls inconclusive (neither active nor inactive); the mix of calls is not that of the screen. Calls come from the whole dose curve; as a rule, active = well fitted inhibition curve with a large enough effect; inconclusive = small, poorly fitted or top-dose-only effect, or effect the other way; inactive = flat fitted curve, though single readings scatter. Where the call is inconclusive, the potency comes from a doubtful curve fit.
# Target: Cruzipain (Trypanosoma cruzi) (UniProt P25779)
# UniProt P25779, sequence (P25779 whole entry, looked up): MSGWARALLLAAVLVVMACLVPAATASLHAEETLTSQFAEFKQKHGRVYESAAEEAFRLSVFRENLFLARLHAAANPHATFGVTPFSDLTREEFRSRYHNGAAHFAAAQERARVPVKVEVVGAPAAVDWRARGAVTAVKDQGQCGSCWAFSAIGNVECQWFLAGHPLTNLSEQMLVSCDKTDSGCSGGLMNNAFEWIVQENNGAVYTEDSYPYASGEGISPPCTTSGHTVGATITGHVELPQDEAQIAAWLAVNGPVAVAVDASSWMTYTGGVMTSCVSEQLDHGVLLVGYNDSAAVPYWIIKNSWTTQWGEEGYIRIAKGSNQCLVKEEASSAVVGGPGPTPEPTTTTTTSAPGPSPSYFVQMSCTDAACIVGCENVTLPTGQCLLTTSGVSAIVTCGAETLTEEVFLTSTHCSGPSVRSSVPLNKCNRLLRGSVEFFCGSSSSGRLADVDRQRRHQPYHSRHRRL
# Experiment: qHTS Assay for Promiscuous and Specific Inhibitors of Cruzain (without detergent); note: nearly all actives have a fitted effect of over 40% in size;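 for max response, negative = inhibition: plate controls were enzyme without inhibitor for no effect and buffer without enzyme for full effect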
# Settings: purified cruzain, Z-FR-AMC fluorescence, no detergent
# Outline: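 Purified cruzain at 1.5 nM, pre-incubated 15 min with compound at room temperature in 100 mM sodium acetate pH 5.5, 5 mM DTT, 0.00005% Triton X-100. Reaction started with 2 uM Z-FR-AMC; AMC fluorescence increase over 60 s gives rate.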
# Potency is the fitted concentration of half-maximal effect; tags give direction and shape of the fitted curve.
Compound,Potency,"max response, negative = inhibition"
CCOC(=O)N1CCN(S(=O)(=O)c2cc(OCC(=O)NC3CCCCC3)c(C)cc2Cl)CC1,"inconclusive: 31.6 µM [activator, single point]",
CC(=O)C1=C(c2ccc(C)c(C)c2)N(C(C)=O)n2c(nnc2-c2ccc(Cl)cc2)S1,,inactive: -7.36%
CCNC(=O)c1nn(-c2ccccc2C)nc1CO,,inactive: 11.1%
CCOC(=O)c1cc(-c2ccccc2)n(CC(=O)Nc2ccc(OC)c(OC)c2)c1C,"inconclusive: 25.1 µM [activator, partial curve]",
COc1ccc(-c2nnc(SC(C)C(=O)Nc3nccs3)n2-c2ccccc2)cc1OC (stereo not drawn),"inconclusive: 39.8 µM [activator, single point]",
CCC(=O)C1=C(c2cccc(OC)c2)N(C(=O)CC)n2c(nnc2C2CCCCC2)S1,,inactive: -6.06%
O=C1/C(=C/c2ccc([N+](=O)[O-])cc2)C=C(c2ccccc2)N1c1ccccc1,active: 12.6 µM,
COc1ccc(OC)c(CCNC(=O)c2csc3c2CCCCC3)c1,,inactive: -4.14%
CCOC(=O)C1CCN(C(=O)c2ccc3c(=O)n4nc(Nc5cc(C)ccc5C)sc4nc3c2)CC1,"inconclusive: 39.8 µM [activator, single point]",
CCOC(=O)C(C)NC(=O)c1c(C)oc2ncn(CC(C)C)c(=O)c12 (stereo not drawn),,inactive: -4.78%
Cc1ccc(N(CC(O)CON=C2c3ccccc3-c3ccccc32)S(C)(=O)=O)cc1 (stereo not drawn),"inconclusive: 25.1 µM [activator, single point]",
CCOc1cccc(C2c3c(-c4cc(C)ccc4O)n[nH]c3C(=O)N2Cc2ccco2)c1 (stereo not drawn),"inconclusive: 39.8 µM [inhibitor, single point]",
Fc1cccc(CSc2nc3ccncc3[nH]2)c1,,inactive: -3.47%
COCCn1c(=O)c(-c2cc(F)cc(F)c2)nc2cnc(Nc3cccc(OC)c3)nc21,,inactive: -0.763%
Cc1ccc(CN(Cc2ccco2)C(=O)COc2ccc(C(C)C)cc2)cc1,"inconclusive: 39.8 µM [inhibitor, single point]",
Cc1nn(-c2ccccc2)c(N2CCCC2)c1/C=C1\N=C(c2ccc(F)cc2)OC1=O,active: 0.316 µM,
COC(=O)c1cc(Cl)c(NC(=O)c2ccco2)cc1OC,"inconclusive: 31.6 µM [activator, single point]",
Cc1cc(C)cc(NC(=O)CN2C(=O)c3ccccc3Sc3ncccc32)c1,,inactive: 24.7%
COC(=O)c1c(C)oc2ccc(NS(=O)(=O)c3cc(OC)ccc3OC)cc12,"inconclusive: 39.8 µM [activator, single point]",
CC(=O)c1ccc(NC(=O)CSc2nc(-c3cccc(F)c3)nc3c2c(=O)n(C)c(=O)n3C)cc1,,inactive: -1.18%
Cc1cc(C)c(NC(=S)NC(=O)c2ccc(-c3ccccc3)cc2)c(C)c1,"inconclusive: 25.1 µM [inhibitor, single point]",
CC(CCC(=O)O)C1CCC2C3CC[C@H]4CC(O)CC[C@@]4(C)C3CC(O)[C@]12C (stereo partly drawn),"inconclusive: 25.1 µM [activator, single point]",
CCOc1ccc(CCNC(=O)CN2N=C(c3ccccc3)CCC2=O)cc1OCC,,inactive: 27.4%

Compound,Potency,"max response, negative = inhibition"
COc1ccccc1N1CCN(C(=O)CN2C(=O)COc3ccc(S(=O)(=O)N4CCC(C)CC4)cc32)CC1,"inconclusive: 39.8 µM [activator, single point]",
CCC(C)(C)n1nnnc1C(c1cc(OC)c(OC)c(OC)c1)N1CCN(c2ccccc2)CC1 (stereo not drawn),"inconclusive: 31.6 µM [activator, single point]",
O=C(CSc1ccccc1)Nc1ccc(-c2nc3ccccc3[nH]2)cc1,"inconclusive: 25.1 µM [inhibitor, single point]",
O=C(CSc1ccccc1)Nc1ccc(N2CCN(c3ccccc3)CC2)c(F)c1,active: 12.6 µM,
O=C1CC(=C(c2ccccc2)c2ccccc2)C(=O)N1CCCN1CCN(c2cccc(Cl)c2)CC1,"inconclusive: 31.6 µM [inhibitor, single point]",
Cc1ccc2c(c1)C(c1ccc(F)cc1)N(C(=O)c1ccc(OC(C)C)cc1)CC(=O)N2 (stereo not drawn),,inactive: -5.85%
Cc1ccccc1C(=O)Nc1cc(-c2ccc(Cl)cc2)nn1-c1ccccc1,"inconclusive: 25.1 µM [inhibitor, single point]",
COc1cccc(/C=N/NC(N)=S)c1OCc1ccccc1Cl,"inconclusive: 0.316 µM [inhibitor, full curve, poor fit]",
C=C1C[C@]23CC[C@H]4C(CO)(CO)C[C@@H](O)C[C@@]4(C)[C@@H]2CC[C@H]1C3,"inconclusive: 31.6 µM [activator, single point]",
Cc1ccc(-n2nnc(C(=O)Nc3cc(F)ccc3F)c2C)cc1F,,inactive: 9.79%
COc1ccc(-c2csc(NC(=O)COc3ccc(N(C)S(=O)(=O)c4ccc(C)cc4)cc3)n2)cc1,active: 7.94 µM,
CC(C)(C)C(=O)NCCc1csc2nc(-c3ccc(F)cc3)nn12,,inactive: -10.3%
Cc1ccc(Cl)cc1N1CCN(CCNC(=O)Nc2ccccc2Cl)CC1,,inactive: 4.89%
CCC(C)(C)NC(=O)C(c1cccn1C)N(C(=O)Cn1nnc2ccccc21)c1ccc(OC)cc1OC (stereo not drawn),"inconclusive: 39.8 µM [activator, single point]",
CCCCOc1ccc(/C=C/C(=O)Nc2ccc(C(N)=O)cc2)cc1,active: 15.8 µM,
CC(C)(C)NC(=O)Cn1c(-c2nonc2N)nc2ccccc21,,inactive: -6.66%
CCOC(=O)Cn1nc(C)c(NC(=O)COc2ccc(Cl)cc2C)c1C,,inactive: -5.93%
NCCCCC(NC(CCc1ccccc1)C(=O)O)C(=O)N1CCCC1C(=O)O (stereo not drawn),,inactive: 7.21%
CN(C(=O)COC(=O)c1cc(NS(=O)(=O)c2cc([N+](=O)[O-])ccc2Cl)ccc1O)C1CCCCC1,"inconclusive: 15.8 µM [inhibitor, partial curve]",
O=C(CNC(=O)C(c1ccccc1)c1ccccc1)OCC(=O)c1cccs1,active: 12.6 µM,
Cc1cccc(NC(=S)N/N=C/c2ccc(Cl)c([N+](=O)[O-])c2)c1,active: 31.6 µM,
CC(Nc1cccc2ccccc12)C(=O)N/N=C/c1ccc([N+](=O)[O-])cc1 (stereo not drawn),"inconclusive: 31.6 µM [inhibitor, single point]",
O=C(NCCN1CCCC1)c1ccc2c(c1)N(Cc1ccc(F)cc1)C(=O)c1ccccc1S2=O (stereo not drawn),"inconclusive: 39.8 µM [inhibitor, single point]",

Compound,Potency,"max response, negative = inhibition"
CO[C@@H](CCO)C[C@H]1O[C@H](C(=O)OC(C)C)CC[C@@H]1C,,inactive: -3.84%
CCN(CC)c1ccc(N=Cc2c(O)n(Cc3ccccc3)c(=O)[nH]c2=O)cc1,"inconclusive: 39.8 µM [inhibitor, single point]",
COc1ccc2c(c1)c1c(c(=O)n(-c3cccc(Cl)c3)c(=O)n1CC(=O)N1CCCC1)n2C,,inactive: 2.14%
Cc1ccc2oc3c(c(=O)c2c1)C(c1cccc(O)c1)N(c1ccccn1)C3=O (stereo not drawn),"inconclusive: 39.8 µM [activator, single point]",
Cc1cc(OC(=O)c2c(C)cc(O)cc2O)cc(O)c1C(=O)O,"inconclusive: 0.0126 µM [activator, full curve, poor fit]",
Cc1ccccc1OCc1nnc(SCc2cc(=O)c3cccc(F)c3[nH]2)n1C,,inactive: -3.73%
O=C(c1ccncc1)N1CCC2(CC1)CN(c1cccc(-c3ccccc3)c1)C2,"inconclusive: 25.1 µM [activator, partial curve]",
Fc1ccccc1Cn1c(-c2ccccc2)nc2ccccc21,,inactive: 3.28%
COCCCNC(=O)CSc1nc2c(sc3ccccc32)c(=O)n1CCCC(=O)NCCOC,"inconclusive: 39.8 µM [activator, single point]",
Cc1ccc(C)c(Cn2c3ccccc3c3cnn(CC(=O)NCc4ccccc4)c(=O)c32)c1,"inconclusive: 3.98 µM [inhibitor, single point]",
Cc1ccc(NC(=O)CSc2nc(-c3ccco3)nc3cc(=O)[nH]n23)cc1C,,inactive: -8.54%
COC(=O)C1=C(CN2CCc3ccccc32)NC(=O)NC1c1cc(C)ccc1C (stereo not drawn),"inconclusive: 39.8 µM [inhibitor, single point]",
Cc1cccc2nc(-c3cccc(NS(=O)(=O)c4ccccc4)c3)cn12,,inactive: 7.05%
Cc1ccc(C)c(CSc2nc3ccncc3n2CC(=O)Nc2ccc(N(C)C)cc2)c1,,inactive: -29.8%
CCOc1ccc(C2C(C#N)=C(N)Oc3n[nH]c(C)c32)cc1OC(=O)C1CC1 (stereo not drawn),"inconclusive: 1.26 µM [inhibitor, single point]",
CCc1nnc(NC(=O)CCN(c2cc(C)cc(C)c2)S(=O)(=O)c2ccc(Cl)cc2)s1,,inactive: -0.548%
O=C(CCN1CCc2ccccc21)c1ccc2c(c1)OCCO2,active: 7.94 µM,
CCCC1CCc2c(sc(N)c2C(N)=O)C1 (stereo not drawn),"inconclusive: 31.6 µM [inhibitor, single point]",
CC(C)Cn1c(=O)c(C(=O)NCc2ccccn2)c(O)c2ccccc21,"inconclusive: 39.8 µM [activator, single point]",
Cc1ccc(S(=O)(=O)c2c(Nc3cc(F)ccc3F)sc(C(=O)c3ccc(F)cc3)c2N)cc1,active: 3.16 µM,
CC(=O)Nc1nonc1-c1nnc(SCC(=O)Nc2cc(C)cc(C)c2)n1-c1ccccc1,"inconclusive: 7.94 µM [activator, single point]",
O=C(COC(=O)[C@H](Cc1ccccc1)NC(=O)c1cccs1)Nc1c(Cl)cccc1Cl,active: 25.1 µM,
